Assay results: PubChem BioAssay AID1508623 (National Center for Advancing Translational Sciences (NCATS), 2021)
The campaign covered roughly 48,000 compounds. About 450 (0.94%) were called active. Inconclusive results (about 19%) are left out. Calls follow the shape of the dose curve; as a rule, active = well fitted inhibition curve with a large enough effect; inconclusive = small, poorly fitted or top-dose-only effect; inactive = no such curve, though single readings can be large or run the other way. Some of the results follow.

Test: Primary qHTS for Identification of Small Molecule Inhibitors of Huntingtin Promoter Activity; also: nearly all actives have a fitted effect of over 50% in size
Details: HEK293 HTT promoter firefly luciferase reporter (activity 0% = vehicle and -100% = no light), 24 h; series mostly up to 57.5 µM; activity change, negative = inhibition: at the top concentration
Procedure, shortened: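 Firefly luciferase signal from promoter-reporter HEK293 cells was scaled between vehicle (0%) and zero RLU (-100%). Compounds were tested at final concentrations of up to 57.5 uM over 24 h at 37 degrees C. PTC124 at 50 uM final served as control inhibitor.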

Activity change, negative = inhibition, inactive:
Cc1ccc(Cn2ccn(Cc3ccccc3F)c(=O)c2=O)cc1 -9.65%
Cc1nc2c(-c3ccccc3)c(C)nn2c(C)c1CCC(=O)N1CCN(c2ccc(F)cc2)CC1 -26.4%
Cc1c(Cl)cccc1NC(=O)COCc1cc(-c2ccc3c(c2)OCO3)on1 -5.62%
CSc1ccc(CCNC(=O)c2ccc(-c3nc(COc4ccccc4)c(C)o3)cc2)cc1 -7.69%
Cc1cccc(N2CCN(CCCNc3ncnc4onc(-c5ccc(Cl)cc5)c34)CC2C)c1 (configuration not stated) -11.1%
COc1ccc(CCNC(=O)CCn2c(=O)c3ccccc3n(Cc3cc(C)ccc3C)c2=O)cc1OC -11.4%
Cc1ccc2nc(-c3ccc(Cl)c(NC(=O)COc4cccc(C)c4C)c3)oc2c1 -10.9%
Cc1cccc(NC(=O)c2ccc3snnc3c2)c1 48%
Cc1cc2c(cc1NS(=O)(=O)c1ccc(F)cc1)n(C)c(=O)c(=O)n2C 1.57%
CCCc1cc(=O)[nH]c2nnc(SC(C)CC)n12 (configuration not stated) -11.4%
CCOC(=O)c1sc(NC(=O)/C=C/c2ccc(C(C)C)cc2)c(C(=O)OCC)c1C 1.5%
CCc1cccc(C)c1NS(=O)(=O)c1cc2[nH]c(=O)c(=O)[nH]c2cc1C 3.46%
CCc1nnc(SCC(=O)Nc2ccccc2Cl)nc1CC -22.6%
CCc1ccc(NCc2cc3cc4c(cc3n(CC(=O)Nc3cccc(OC)c3)c2=O)OCO4)cc1 -21.3%
CC(C)COc1ccc(C(=O)NCC2(N3CCN(C)CC3)CCCCC2)cc1 -9.97%
CCc1ccc2ncc3c(-c4ccccc4)nn(-c4ccccc4)c3c2c1 -14.3%
CC[N+](C)(C)c1cccc(O)c1 5.4%
Cc1cc(NS(=O)(=O)c2ccc(NC(=O)c3ccccc3C)cc2)nc(C)n1 -23.4%
Cc1ccc(C)c(NC(=O)CC2NCCNC2=O)c1 (configuration not stated) -31.5% [at 11.5 µM]
Cc1ccc(NC(=O)C2CCCN(c3nnc(-n4c(C)ccc4C)s3)C2)c(C)c1 (configuration not stated) -19%
N#Cc1ccccc1Cn1c(=O)n(CCCC(=O)NCc2ccc3c(c2)OCO3)c(=O)c2sccc21 -20.2%
CCCC(C(=O)NCc1cccc(Cl)c1)N1Cc2ccccc2C1=O (configuration not stated) -20.5%
Cc1ccn2c(=O)cc(COc3ccc(NC(=O)COc4ccc(Cl)cc4)cc3)nc2c1 -5.41%
CCCN(CCC)C(=O)Cn1c(=O)n(-c2cccc(OC)c2)c(=O)c2c3c(sc21)CCCC3 2.66%
Cc1csc2nc(COC(=O)c3cccc(NC(=O)COc4ccc(Cl)cc4)c3)cc(=O)n12 -14.4%
O=C(CCCCn1c(=O)c2ccccc2n(Cc2ccccc2Cl)c1=O)NCCc1ccccc1 -8.95%
CCOC(=O)CSc1ccc2nnc(CCNS(=O)(=O)c3ccccc3)n2n1 -4.49%
Cc1ccc(CCNC(=O)C(NS(=O)(=O)c2ccc3c(c2)oc(=O)n3C)C(C)C)cc1 (configuration not stated) -15%
Cc1ccc(N(CC(=O)N2CCN(c3ccccc3F)CC2)S(=O)(=O)c2c(C)noc2C)cc1 -9.29%
O=C(Nc1cccc(C(=O)OCc2cc(=O)n3nc(C4CC4)sc3n2)c1)c1cccc(F)c1 -18.3%
COc1cc2c(cc1OC)C(COc1ccc3c(C)cc(=O)oc3c1)N(C(=O)c1cccc(C)c1)CC2 (configuration not stated) -20.1%
CCOc1ccc(-n2c(SCC(=O)NCC3CCCO3)nc3c([nH]c4ccccc43)c2=O)cc1 (configuration not stated) -10.7%
Cn1c(=O)c(=O)n(C)c2cc(S(=O)(=O)N3CCCC3C(=O)Nc3ccccc3F)ccc21 (configuration not stated) -1.17%
COc1ccc(NC(=O)CSc2nncn3c2cc2oc(C)cc23)cc1OC 11.9%
Cc1ccc(N(CC(=O)Nc2cccc(F)c2)S(=O)(=O)c2cccs2)cc1 -24.6%
CNC(=O)C1CCC(Cn2c(=O)c3sccc3n(Cc3ccc(F)cc3)c2=O)CC1 (configuration not stated) -6.51%
CC1(C(=O)Nc2cccc(Br)c2)Cc2ccccc2C(=O)O1 (configuration not stated) -20.8%
CC(=O)N1CCCc2cc(S(=O)(=O)N3CCC(C(=O)NC4CCC(C)CC4)CC3)ccc21 (configuration not stated) -16.3%
COCCCNC(=O)CCC(=O)N1Cc2cccc(OC)c2Oc2ncccc21 -19.5%
CCCc1cc(=O)oc2c3c(ccc12)OCN(Cc1ccc(OC)cc1)C3 -9.48%
COC(=O)c1ccccc1NC(=O)c1ncoc1-c1ccco1 -15.7%
NC(N)=NS(=O)(=O)c1ccc(N)cc1 -3.35%
COC(=O)Cn1nc(C)c2c(C)n(-c3ccccc3)nc2c1=O -6.49%
COc1cccc2c1cc1c(=O)n(CC(=O)NC3CCCCC3)nc(C)n12 -1.83%
COc1cc(C(=O)N2CCN(c3ccc(Nc4ccc(C)cc4)nn3)CC2)cc(OC)c1OC -9.71%
Cc1ccc(C(=O)Nc2cccc(OCc3cc(=O)n4c5c(sc4n3)CCCC5)c2)cc1 -6.77%
NC(=O)CSc1oc(-c2ccco2)nc1S(=O)(=O)c1ccc(Cl)cc1 -20.7%
Cc1ccc(NC(=O)c2cc3cc(C)ccc3n2C)cc1 -1.05%
O=C(NCCc1ccccc1)c1sc2ncccc2c1-n1cccc1 11.5%
CCCc1cnc2c(c1SCC(=O)N1CCC(C)CC1)c(=O)n(C)c(=O)n2C -28.6%
CCC1CCCCN1C(=O)Cn1c(=O)oc2cc(S(=O)(=O)N3CCCCC3)ccc21 (configuration not stated) -16.9%
Cc1ccc(NC(=O)C(Cc2ccccc2)NS(=O)(=O)c2ccc3c(c2)oc(=O)n3C)cc1F (configuration not stated) -24.8%
Clc1cccc(-n2ncc3c(N4CCC(Cc5ccccc5)CC4)ncnc32)c1 -15.1%
CCCCNC(=O)C1CCC(Cn2c(=O)c3sccc3n(CC(=O)N3CCCC3)c2=O)CC1 (configuration not stated) -5.47%
COC(=O)c1cccnc1-n1c(=O)c2cccnc2n(CC(=O)Nc2ccccc2F)c1=O -10.6%
CCOC(=O)c1c(C)oc2nc(C)nc(NCc3ccc(OC)cc3OC)c12 -1.53%
O=C(CSc1nncn2c1cc1sccc12)Nc1ccc(Br)cc1F 2.29%
CCOc1ccccc1NC(=O)C1CCN(S(=O)(=O)c2ccc3c(c2)CC(C)N3C(C)=O)CC1 (configuration not stated) -0.443%
CCOC(=O)c1ccccc1NC(=O)Cn1c(=O)n(-c2cccc(C)c2)c(=O)c2c1c1cc(C)ccc1n2C 3.27%
CCOc1ccc(Cn2c(CNS(=O)(=O)c3ccc(Cl)s3)nc3cccnc32)cc1 -22%
COc1cccc(N2CCN(S(=O)(=O)c3ccc(-n4cnnn4)cc3)CC2)c1 0.646%
COc1cc(C2C(C(=O)Nc3ccccc3C)=C(C)Nc3ncnn32)ccc1OCC(N)=O (configuration not stated) -6.09%
O=C(NCC(c1ccc2c(c1)OCO2)N1CCOCC1)c1cccc(Cl)c1 (configuration not stated) -6.41%
CN(c1ccccc1)S(=O)(=O)c1ccc(NC(=O)c2cc(=O)c3ccccc3o2)cc1 -8.09%
COCC(=O)NCc1nc2cccnc2n1Cc1ccc(F)cc1 11.5%
O=C(CCn1cnnn1)Nc1ccc(F)cc1 68.5%
Cc1oc(C)c2c(=O)cc(-c3ccc4c(c3)OCO4)cc(OC(=O)c3cccc(Br)c3)c12 -31.6%
Cc1ccc(Cn2c(CNS(=O)(=O)c3ccc(F)c(Cl)c3)nc3cccnc32)cc1 -13.4%
COc1ccc(-n2ncc(C(=O)NCCc3ccsc3)c2C2CCN(C(=O)OC(C)(C)C)CC2)cc1 -1.71%
Cc1noc(-c2ccc(N3CCCCC3)c([N+](=O)[O-])c2)n1 39.1%
Cc1cc(NC(=O)c2cccc(Cl)c2)ccc1-c1cc2ccccc2oc1=O -10.3% [at 11.5 µM]
COc1ccc(-c2noc(-c3ccc(N4CCN(c5ccccc5)CC4)c([N+](=O)[O-])c3)n2)cc1OC -7.68%
CCOC(=O)C1(C)C=C(Nc2cccc(C(=O)O)c2)C(=O)N1c1cccc(C(=O)O)c1 (configuration not stated) 4.91%
Cc1ccc(CNS(=O)(=O)c2ccc3[nH]c4c(c3c2)CCCC4)cc1 8.32%
O=C1CS(=O)(=O)C2(C(=O)N(Cc3ccccc3)c3ccccc32)N1c1ccccc1 (configuration not stated) -11.2%
Cc1cn[nH]c1
Cc1ccc(CCNC(=O)c2ccc3c(c2)nc2n3CCC(C)C2)cc1 (configuration not stated) 0.948%
Cc1cc(C)n(CCc2nc3c4ccccc4nc(N4CCN(c5ccccc5)CC4)n3n2)n1 -5.84%
CCc1nn(CC(=O)N2CCN(c3cc(C)ccc3C)CC2)c(=O)c2cc3occc3n12 -15%
CC1=C(c2ccc(C)c(C)c2)S(=O)(=O)N=C1N1CCC(C(=O)Nc2ccc(Cl)cc2)CC1 -21.4%
COc1ccc(CCNc2nc(SCc3ccc(F)cc3)nc3ccccc23)cc1OC -16.6%
CCc1ccc(-c2nc(SCC(=O)NCC3CCCO3)c(-c3ccc(F)cc3)[nH]2)cc1 (configuration not stated) -16.6%
CNC(=O)c1ccc(CSc2nc3cccnc3n2Cc2cccc(F)c2)cc1 -12.7%
Fc1ccccc1N1CCN(c2ncc3c(n2)CCN(Cc2ccc(Br)s2)C3)CC1 -28.8%
Cc1ccc(C)c(NC(=O)N2CCc3cc(S(=O)(=O)N4CCC(C)CC4)ccc32)c1 -10.7%
Cc1ccc2nc(-c3cccc(Cl)c3)c(Nc3ccc4c(c3)OCO4)n2c1 10.9%
CC(Oc1ccccc1)C(=O)OCc1cc(=O)n2nc(C(C)C)sc2n1 (configuration not stated) -22%
CCc1ccc(S(=O)(=O)c2nnn3c2nc(NCc2cccc(OC)c2)c2cc(Cl)ccc23)cc1 -12.4%
Cc1ccsc1CN(C(=O)c1ccc(Br)cc1)C1CCS(=O)(=O)C1 (configuration not stated) -14.8%
Cc1ccc(NC(=O)N2CCN3CCCCC3C2)cc1F (configuration not stated) 29.1%
O=C(Nc1cccc(-c2nc3ccccc3[nH]2)c1)c1ccccc1F -5.18%
COc1ccccc1NC(=O)Cn1cc(C(=O)c2ccncc2)c(=O)c2cc(C)ccc21 -21.9%
COc1ccc(Cl)cc1NC(=O)C1CCN(S(=O)(=O)c2ccc3c(c2)CCCN3C(=O)C2CCC2)CC1 1.26%
Cc1cc(=O)[nH]c2nnc(SCC(=O)Nc3ccc(F)cc3F)n12 1.14%
COc1ccc(NC(=O)c2cc(S(=O)(=O)N3CCCCC3)cn2C)cc1Cl -17.5%
CCCC(CCC)C(=O)Nc1nnc2n1CCS2 -15.6%
Cc1cccc(N(C)C(=O)c2cc(S(=O)(=O)N3CCCCC3)c[nH]2)c1 -9.64%
